Laboratory results: the supplement of paper PMC11876631
± gives the standard deviation of the averaged measurements. Laboratory Escherichia coli strains with one amino-acid change in an essential protein, pooled on minimal glucose agar with carbenicillin or gentamicin at twice the control MIC (plus kanamycin and chloramphenicol for the plasmids), 48 h. Fold change of barcode share against drug-free plates; higher = less susceptible. Active = above 20 in both replicates (the paper's putatively resistant). '<' = one read or none on drug, '>' = one read or none on a drug-free plate. Shares are relative, so most strains fall below 1 when a few take over. Listed are strains with at least 15 reads on both drug-free plates, and hits; most hits rest on fewer reference reads. Replicate rank correlation about 0.5. Edits are read from barcodes.

Biological target: Escherichia coli (laboratory strain)
Assay: barcode share on antibiotic plates over drug-free plates; higher = less susceptible
Settings: antibiotic: gentamicin; 2× MIC (MIC 0.45 µg/mL)
Experimental: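 A pool of E. coli strains, each edited to carry one amino-acid change in an essential protein, was grown for 48 h on minimal glucose agar with or without antibiotic; strain barcodes were sequenced; mean of two replicates.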

B1: der V320A (protein)
chain: MVPVVALVGRPNVGKSTLFNRLTRTRDALVADFPGLTRDRKYGRAEIEGREFICIDTGGIDGTEDGVETRMAEQSLLAIEEADVVLFMVDARAGLMPADEAIAKHLRSREKPTFLVANKTDGLDPDQAVVDFYSLGLGEIYPIAASHGRGVLSLLEHVLLPWMEDLAPQEEVDEDAEYWAQFEAEENGEEEEEDDFDPQSLPIKLAIVGRPNVGKSTLTNRILGEERVVVYDMPGTTRDSIYIPMERDGREYVLIDTAGVRKRGKITDAVEKFSVIKTLQAIEDANVVMLVIDAREGISDQDLSLLGFILNSGRSLVIVANKWDGLSQEVKEQVKETLDFRLGFIDFARVHFISALHGSGVGNLFESVREAYDSSTRRVGTSMLTRIMTMAVEDHQPPLVRGRRVKLKYAHAGGYNPPIVVIHGNQVKDLPDSYKRYLMNYFRKSLDVMGSPIRIQFKEGENPYANKRNTLTPTQMRKRKRLMKHIKKNK
fold change of barcode share: 0.00763 ± 0.004

B2: der I318A (protein)
chain: MVPVVALVGRPNVGKSTLFNRLTRTRDALVADFPGLTRDRKYGRAEIEGREFICIDTGGIDGTEDGVETRMAEQSLLAIEEADVVLFMVDARAGLMPADEAIAKHLRSREKPTFLVANKTDGLDPDQAVVDFYSLGLGEIYPIAASHGRGVLSLLEHVLLPWMEDLAPQEEVDEDAEYWAQFEAEENGEEEEEDDFDPQSLPIKLAIVGRPNVGKSTLTNRILGEERVVVYDMPGTTRDSIYIPMERDGREYVLIDTAGVRKRGKITDAVEKFSVIKTLQAIEDANVVMLVIDAREGISDQDLSLLGFILNSGRSLVAVVNKWDGLSQEVKEQVKETLDFRLGFIDFARVHFISALHGSGVGNLFESVREAYDSSTRRVGTSMLTRIMTMAVEDHQPPLVRGRRVKLKYAHAGGYNPPIVVIHGNQVKDLPDSYKRYLMNYFRKSLDVMGSPIRIQFKEGENPYANKRNTLTPTQMRKRKRLMKHIKKNK
fold change of barcode share: 0.00703 ± 0.0046

B3: der V320Q (protein)
chain: MVPVVALVGRPNVGKSTLFNRLTRTRDALVADFPGLTRDRKYGRAEIEGREFICIDTGGIDGTEDGVETRMAEQSLLAIEEADVVLFMVDARAGLMPADEAIAKHLRSREKPTFLVANKTDGLDPDQAVVDFYSLGLGEIYPIAASHGRGVLSLLEHVLLPWMEDLAPQEEVDEDAEYWAQFEAEENGEEEEEDDFDPQSLPIKLAIVGRPNVGKSTLTNRILGEERVVVYDMPGTTRDSIYIPMERDGREYVLIDTAGVRKRGKITDAVEKFSVIKTLQAIEDANVVMLVIDAREGISDQDLSLLGFILNSGRSLVIVQNKWDGLSQEVKEQVKETLDFRLGFIDFARVHFISALHGSGVGNLFESVREAYDSSTRRVGTSMLTRIMTMAVEDHQPPLVRGRRVKLKYAHAGGYNPPIVVIHGNQVKDLPDSYKRYLMNYFRKSLDVMGSPIRIQFKEGENPYANKRNTLTPTQMRKRKRLMKHIKKNK
fold change of barcode share: 0.00684 ± 0.0046

B4: der I318W (protein)
chain: MVPVVALVGRPNVGKSTLFNRLTRTRDALVADFPGLTRDRKYGRAEIEGREFICIDTGGIDGTEDGVETRMAEQSLLAIEEADVVLFMVDARAGLMPADEAIAKHLRSREKPTFLVANKTDGLDPDQAVVDFYSLGLGEIYPIAASHGRGVLSLLEHVLLPWMEDLAPQEEVDEDAEYWAQFEAEENGEEEEEDDFDPQSLPIKLAIVGRPNVGKSTLTNRILGEERVVVYDMPGTTRDSIYIPMERDGREYVLIDTAGVRKRGKITDAVEKFSVIKTLQAIEDANVVMLVIDAREGISDQDLSLLGFILNSGRSLVWVVNKWDGLSQEVKEQVKETLDFRLGFIDFARVHFISALHGSGVGNLFESVREAYDSSTRRVGTSMLTRIMTMAVEDHQPPLVRGRRVKLKYAHAGGYNPPIVVIHGNQVKDLPDSYKRYLMNYFRKSLDVMGSPIRIQFKEGENPYANKRNTLTPTQMRKRKRLMKHIKKNK
fold change of barcode share: < 0.00201

B5: der I318Q (protein)
chain: MVPVVALVGRPNVGKSTLFNRLTRTRDALVADFPGLTRDRKYGRAEIEGREFICIDTGGIDGTEDGVETRMAEQSLLAIEEADVVLFMVDARAGLMPADEAIAKHLRSREKPTFLVANKTDGLDPDQAVVDFYSLGLGEIYPIAASHGRGVLSLLEHVLLPWMEDLAPQEEVDEDAEYWAQFEAEENGEEEEEDDFDPQSLPIKLAIVGRPNVGKSTLTNRILGEERVVVYDMPGTTRDSIYIPMERDGREYVLIDTAGVRKRGKITDAVEKFSVIKTLQAIEDANVVMLVIDAREGISDQDLSLLGFILNSGRSLVQVVNKWDGLSQEVKEQVKETLDFRLGFIDFARVHFISALHGSGVGNLFESVREAYDSSTRRVGTSMLTRIMTMAVEDHQPPLVRGRRVKLKYAHAGGYNPPIVVIHGNQVKDLPDSYKRYLMNYFRKSLDVMGSPIRIQFKEGENPYANKRNTLTPTQMRKRKRLMKHIKKNK
fold change of barcode share: < 0.00345

B6: der V320P (protein)
chain: MVPVVALVGRPNVGKSTLFNRLTRTRDALVADFPGLTRDRKYGRAEIEGREFICIDTGGIDGTEDGVETRMAEQSLLAIEEADVVLFMVDARAGLMPADEAIAKHLRSREKPTFLVANKTDGLDPDQAVVDFYSLGLGEIYPIAASHGRGVLSLLEHVLLPWMEDLAPQEEVDEDAEYWAQFEAEENGEEEEEDDFDPQSLPIKLAIVGRPNVGKSTLTNRILGEERVVVYDMPGTTRDSIYIPMERDGREYVLIDTAGVRKRGKITDAVEKFSVIKTLQAIEDANVVMLVIDAREGISDQDLSLLGFILNSGRSLVIVPNKWDGLSQEVKEQVKETLDFRLGFIDFARVHFISALHGSGVGNLFESVREAYDSSTRRVGTSMLTRIMTMAVEDHQPPLVRGRRVKLKYAHAGGYNPPIVVIHGNQVKDLPDSYKRYLMNYFRKSLDVMGSPIRIQFKEGENPYANKRNTLTPTQMRKRKRLMKHIKKNK
fold change of barcode share: < 0.00395
